In all, about 310,000 compounds went through this assay and about 14,000 (4.5%) showed an effect of 50% or more. Effects have a minus sign here. Some of the results follow.
target: human ether-à-go-go-related gene (hERG) potassium channel (human, UniProt Q12809); experiment: primary screen, population patch clamp on CHO cells stably expressing hERG
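Also: peak tail current of the secondary pulse compared with the same well before compound.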

Sequence of human ether-à-go-go-related gene (hERG) potassium channel (Q12809 whole entry, looked up): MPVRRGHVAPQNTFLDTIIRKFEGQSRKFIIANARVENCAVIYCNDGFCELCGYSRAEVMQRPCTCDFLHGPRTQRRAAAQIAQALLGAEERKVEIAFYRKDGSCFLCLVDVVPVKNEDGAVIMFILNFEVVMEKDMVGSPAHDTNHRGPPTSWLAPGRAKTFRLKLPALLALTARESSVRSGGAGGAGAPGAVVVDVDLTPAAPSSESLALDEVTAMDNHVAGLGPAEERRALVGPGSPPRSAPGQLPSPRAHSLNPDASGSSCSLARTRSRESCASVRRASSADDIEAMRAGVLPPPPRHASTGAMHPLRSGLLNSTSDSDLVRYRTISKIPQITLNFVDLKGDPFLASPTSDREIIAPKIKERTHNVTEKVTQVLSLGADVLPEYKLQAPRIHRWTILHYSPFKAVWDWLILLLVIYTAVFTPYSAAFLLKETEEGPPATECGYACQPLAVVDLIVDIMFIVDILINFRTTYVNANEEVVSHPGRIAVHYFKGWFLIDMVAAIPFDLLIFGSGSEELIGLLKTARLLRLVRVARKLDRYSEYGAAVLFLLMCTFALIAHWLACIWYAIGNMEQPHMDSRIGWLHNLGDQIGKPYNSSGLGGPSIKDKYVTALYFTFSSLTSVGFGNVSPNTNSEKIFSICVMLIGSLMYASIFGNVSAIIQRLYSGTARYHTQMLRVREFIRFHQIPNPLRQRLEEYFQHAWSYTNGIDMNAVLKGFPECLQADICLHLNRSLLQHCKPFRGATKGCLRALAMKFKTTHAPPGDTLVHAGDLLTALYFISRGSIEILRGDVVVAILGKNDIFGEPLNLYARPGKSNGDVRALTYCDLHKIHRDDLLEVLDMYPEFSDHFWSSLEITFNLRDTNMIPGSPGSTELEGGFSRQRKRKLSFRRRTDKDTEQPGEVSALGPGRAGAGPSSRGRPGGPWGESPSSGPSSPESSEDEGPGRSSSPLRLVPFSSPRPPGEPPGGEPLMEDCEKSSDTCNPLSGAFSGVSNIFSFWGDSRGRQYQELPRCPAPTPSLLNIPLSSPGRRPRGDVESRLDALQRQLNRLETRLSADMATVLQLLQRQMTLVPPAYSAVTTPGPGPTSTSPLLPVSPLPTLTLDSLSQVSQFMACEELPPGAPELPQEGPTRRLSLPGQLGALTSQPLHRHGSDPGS

Question: For `Cc1cc(C)cc(NC(=O)CSc2nnc(-c3ccccc3)n2N)c1`, which “hERG current change (%, negative = inhibition) at 10uM” value is on record?
Answer: 6.38%

Question: For `COc1ccc(NC(=O)c2cccc(Oc3ccccc3)c2)cn1`, which “hERG current change (%, negative = inhibition) at 10uM” value is on record?
Answer: 3.97%

Question: Which “hERG current change (%, negative = inhibition) at 10uM” value does the source give for `CCCc1nnc(SCC(=O)N2CCCCC2C)n1CCCOC` (stereo not shown) here?
Answer: -0.164%

Question: For `CC(OC(=O)C1CCC1)C(=O)Nc1cc(Cl)cc(Cl)c1` (stereo not shown), which “hERG current change (%, negative = inhibition) at 10uM” value is on record?
Answer: -0.428%

Question: `COc1ccc(-n2c(=O)c3c4c(sc3n(Cc3cccc(F)c3)c2=O)CN(C(C)=O)CC4)c(OC)c1` was tested. Which “hERG current change (%, negative = inhibition) at 10uM” value did it give?
Answer: -5.37%

Question: `CN(C)C(=O)c1ccc(NC(=O)CC2SC(N3CCCC3)=NC2=O)cc1` (stereo not shown) was tested. Which “hERG current change (%, negative = inhibition) at 10uM” value did it give?
Answer: 20.7%

Question: `CCOc1ccc(CCNC(=O)c2[nH]c(C)c(C(C)=O)c2CC)cc1OCC` was tested. Which “hERG current change (%, negative = inhibition) at 10uM” value did it give?
Answer: -6.52%

Question: With `CCOc1ccccc1C(=O)NCCCCNC(=O)c1ccccc1OCC` as the molecule, how does the “hERG current change (%, negative = inhibition) at 10uM” value read?
Answer: -31.4%

Question: `COC(=O)C1=C(Nc2ccccc2NC(=O)CCCC(=O)O)CSC1` was tested. Which “hERG current change (%, negative = inhibition) at 10uM” value did it give?
Answer: 12.9%

Question: For `COCCn1c(-c2ccco2)nc2nc3ccccc3nc21`, which “hERG current change (%, negative = inhibition) at 10uM” value is on record?
Answer: 2.99%

Question: With `O=C(Oc1cc(=O)n2ccccc2n1)c1ccccc1` as the molecule, how does the “hERG current change (%, negative = inhibition) at 10uM” value read?
Answer: 8.88%

Question: `CCN(CC)S(=O)(=O)c1ccc(OC)c(NC(=O)c2cc(=O)[nH]c3ccccc23)c1` was tested. Which “hERG current change (%, negative = inhibition) at 10uM” value did it give?
Answer: -17.4%

Question: Which “hERG current change (%, negative = inhibition) at 10uM” value does the source give for `C=CCn1c(=O)c(C(=O)NCCN(CC)CC)c(O)c2ccccc21.Cl` here?
Answer: -19.2%

Question: How did the “hERG current change (%, negative = inhibition) at 10uM” value turn out when `Cc1ccc(-n2nc(C(=O)O)c(O)cc2=O)cc1` was run?
Answer: 19.5%

Question: For `Cc1nnc(SCC(=O)Nc2sccc2C#N)s1`, which “hERG current change (%, negative = inhibition) at 10uM” value is on record?
Answer: 11.8%

Question: With `Cc1ccc(-n2c(=O)c3sccc3n(CC(=O)NCC3CCCO3)c2=O)cc1F` (stereo not shown) as the molecule, how does the “hERG current change (%, negative = inhibition) at 10uM” value read?
Answer: 13%

Question: How did the “hERG current change (%, negative = inhibition) at 10uM” value turn out when `O=C(O)/C=C/c1cn(-c2ccccc2)nc1-c1ccccc1` was run?
Answer: 3.71%

Question: With `Cc1cccn2cc(-c3cccc(S(=O)(=O)N4CCOCC4)c3)nc12` as the molecule, how does the “hERG current change (%, negative = inhibition) at 10uM” value read?
Answer: 0.676%

Question: With `COc1ccc(C(=O)c2cnc[nH]2)cc1OC` as the molecule, how does the “hERG current change (%, negative = inhibition) at 10uM” value read?
Answer: 10.9%

Question: How did the “hERG current change (%, negative = inhibition) at 10uM” value turn out when `CCOc1ccc(C(C)=O)cc1COC(=O)C(C)N=C1NS(=O)(=O)c2ccccc21` (stereo not shown) was run?
Answer: -1.19%

Question: How did the “hERG current change (%, negative = inhibition) at 10uM” value turn out when `CCOc1cc(-c2ccc(N)c(OCC)c2)ccc1N` was run?
Answer: -10.2%

Question: For `C=C(Br)Cn1c(CCCC)nc2ccccc21`, which “hERG current change (%, negative = inhibition) at 10uM” value is on record?
Answer: -21.6%

Question: `CC(C)(C)c1nnc(NS(=O)(=O)c2cc(Cl)ccc2Cl)s1` was tested. Which “hERG current change (%, negative = inhibition) at 10uM” value did it give?
Answer: 0.251%

Question: Which “hERG current change (%, negative = inhibition) at 10uM” value does the source give for `COCCN1C(=O)c2ccccc2C(C(=O)NCCCN2CCCC2)C1c1c[nH]c2ccccc12` (stereo not shown) here?
Answer: 2.6%

Question: `CC(C)(Oc1ccc(Cl)cc1)C(=O)Nc1ccc(S(=O)(=O)Nc2ncccn2)cc1` was tested. Which “hERG current change (%, negative = inhibition) at 10uM” value did it give?
Answer: -1.07%
